In PMC4336329 (PLoS ONE, 2015):
Hit rate of the full screen: of about 310,000 compounds, about 14,000 (4.5%) showed an effect of 50% or more. The effect is printed as a negative number. This is one part of the list.

target: human ether-à-go-go-related gene (hERG) potassium channel (human, UniProt Q12809); assay: primary screen, population patch clamp on CHO cells stably expressing hERG
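Further: peak tail current of the secondary pulse compared with the same well before compound.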

human ether-à-go-go-related gene (hERG) potassium channel, sequence (Q12809 whole entry, looked up): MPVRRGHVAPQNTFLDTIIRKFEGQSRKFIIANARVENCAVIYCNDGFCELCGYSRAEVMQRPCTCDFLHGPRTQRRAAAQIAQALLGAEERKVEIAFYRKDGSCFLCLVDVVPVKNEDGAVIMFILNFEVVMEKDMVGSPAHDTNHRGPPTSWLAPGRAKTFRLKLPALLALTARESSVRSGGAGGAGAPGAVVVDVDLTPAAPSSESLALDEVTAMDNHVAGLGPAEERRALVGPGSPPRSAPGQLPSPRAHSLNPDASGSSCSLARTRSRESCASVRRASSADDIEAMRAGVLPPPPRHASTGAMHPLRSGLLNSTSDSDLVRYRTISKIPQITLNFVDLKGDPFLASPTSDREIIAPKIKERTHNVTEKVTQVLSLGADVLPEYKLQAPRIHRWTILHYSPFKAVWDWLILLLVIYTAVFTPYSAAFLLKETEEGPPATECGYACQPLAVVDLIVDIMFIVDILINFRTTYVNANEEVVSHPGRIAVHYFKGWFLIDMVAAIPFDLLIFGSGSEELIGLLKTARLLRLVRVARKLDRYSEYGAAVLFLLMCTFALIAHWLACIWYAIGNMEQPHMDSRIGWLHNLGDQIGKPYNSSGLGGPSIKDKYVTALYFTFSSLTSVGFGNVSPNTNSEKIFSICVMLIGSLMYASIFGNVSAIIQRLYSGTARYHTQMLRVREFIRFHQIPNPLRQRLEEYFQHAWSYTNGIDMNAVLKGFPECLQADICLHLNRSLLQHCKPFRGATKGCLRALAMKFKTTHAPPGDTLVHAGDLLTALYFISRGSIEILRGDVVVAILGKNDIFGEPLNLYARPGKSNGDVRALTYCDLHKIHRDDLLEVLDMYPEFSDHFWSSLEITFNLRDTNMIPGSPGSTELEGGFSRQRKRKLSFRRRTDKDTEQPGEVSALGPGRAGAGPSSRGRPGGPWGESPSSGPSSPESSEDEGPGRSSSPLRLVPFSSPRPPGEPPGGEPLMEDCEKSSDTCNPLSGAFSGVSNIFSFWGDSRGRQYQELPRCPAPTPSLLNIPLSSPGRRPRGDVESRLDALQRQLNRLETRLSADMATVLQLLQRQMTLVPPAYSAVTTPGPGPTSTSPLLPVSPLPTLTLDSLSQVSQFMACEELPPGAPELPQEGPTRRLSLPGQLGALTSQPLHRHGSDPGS

Structure (SMILES) | hERG current change (%, negative = inhibition) at 10uM [%]
N#CC1=C2Nc3ccccc3N2C(=O)NC1(c1ccccc1)C(F)(F)F (stereo not drawn) | 13.9
CC(C)n1c(CN2CCN(Cc3ccccc3)CC2)nc2ccccc21 | -14.4
CCCC(=O)NC(Nc1cc(C(F)(F)F)ccc1Cl)C(Cl)(Cl)Cl (stereo not drawn) | -5.74
Cc1cccc2c1-c1sc(C(=O)N3CCCCC3)cc1CO2 | -18.6
CC1CCCCC12NC(=O)N(CC(=O)Nc1cccc(S(=O)(=O)N3CCCCC3)c1)C2=O (stereo not drawn) | 2.19
COCCOC(=O)C1=C(C)NC(=O)NC1c1cccc2ccccc12 (stereo not drawn) | 10.2
COc1ccc(-c2n[nH]c(=S)n2-c2ccccc2C)cc1 | 23.1
CCCn1c(SCC(=O)NCCc2ccc(OC)c(OC)c2)nc2c1c(=O)n(C)c(=O)n2C | 1.31
CCSc1nnc(NC(=O)C2CCCCC2C(=O)OCC(F)(F)C(F)F)s1 (stereo not drawn) | 17.9
Cc1ccc(NC(=O)C2(c3ccc([N+](=O)[O-])cc3)CCCC2)cc1 | -19.3
Cc1ccccc1N1CCN(C(=O)C2CCC(=O)N(C3CCCC3)C2)CC1 (stereo not drawn) | -22.5
CN(CC(=O)Nc1ccccc1Cl)C(=O)COC(=O)/C=C/c1ccc(C(F)(F)F)cc1 | 16.1
CC(/C=C/c1ccc2c(c1)OCO2)=N\NC(=O)COc1ccccc1C | -9.8
COc1ccc(OC)c(NC(=O)CSc2nnc(CNc3ccc(C)cc3C)o2)c1 | 11.2
Cc1cc(C)nc(SCC(=O)Nc2ncc(Cc3cccc(Cl)c3Cl)s2)n1 | 6.66
COc1ccc(OC)c(CCNC(=O)CCC(=O)N2CCOc3ccc(C)cc32)c1 | -28.3
COC(=O)NNC(=O)COc1ccc2ccccc2c1Br | 4.56
COc1ccc(C(=O)OCc2c(F)cccc2Cl)cc1S(=O)(=O)N1CCOCC1 | -21.8
O=S(=O)(/N=C(/c1ccccc1)N1CCOCC1)c1ccc(Br)cc1 | -8.56
CCC(=O)N1CCc2cc(S(=O)(=O)NCCC(=O)NC3CCCc4ccccc43)ccc21 (stereo not drawn) | 2.47
C#CCSc1nc2sc3c(c2c(=O)n1C)CCC3 | 13.6
CCSc1nnc(NC(NC(C)=O)(C(F)(F)F)C(F)(F)F)s1 | 28.1
O=c1[nH]c(=O)n(-c2cccc(Cl)c2)c(O)c1/C=N/c1ccccn1 | 14

Structure (SMILES) | hERG current change (%, negative = inhibition) at 10uM [%]
O=C(NCc1ccccn1)C1CCC(CNS(=O)(=O)c2cccc3nsnc23)CC1 (stereo not drawn) | 2.45
Cc1ccc2nc(-c3ccc(NC(=O)C4CCCO4)cc3)[nH]c2c1 (stereo not drawn) | -3.48
Cc1ccc(N2CCN(C3=NC(=O)C(Cc4ccccc4)S3)CC2)cc1 (stereo not drawn) | -40.1
CC1CCN(C(=O)c2[nH]cnc2C(=O)NCC(=O)OCc2ccccc2)CC1 | -1.6
COc1cc(C2SCC(=O)N2c2c(C)n(C)n(-c3ccccc3)c2=O)ccc1O (stereo not drawn) | -1.99
CCC(=O)Nc1nnc(S(=O)(=O)N2c3ccccc3CC2C)s1 (stereo not drawn) | 4.93
Cc1ccc2cc(CCNS(=O)(=O)c3ccc(Cl)cc3)c(=O)[nH]c2c1C | 19.1
C(=N\Nc1nc2ccccc2s1)/c1ccccn1 | -0.214
Cc1ccc(CNC(=O)C2CCCN(c3nc(C)cc(C)n3)C2)cc1 (stereo not drawn) | 13.8
Cn1c(=O)[nH]c(=O)c2c1nc(Br)n2CC(O)COc1ccc(Cl)cc1 (stereo not drawn) | -63.6
COc1ccc(C)cc1NC(=O)NCCCCc1ccccc1 | -0.4
Cc1cccc2c(=O)n3c(nc12)CCCCC3 | 2.19
CC(C)CN(CCCNC(=O)CN1C(=O)COc2ccc(S(=O)(=O)N3CCCCCC3)cc21)CC(C)C | -52
O=C(c1ccc(Cl)cc1)N1CCN(c2ccc(F)cc2)CC1 | -34
O=C(c1cccc(S(=O)(=O)N2CCN(c3ccc(F)cc3)CC2)c1)N1CCCC(C(F)(F)F)C1 (stereo not drawn) | -25.3
COc1ccc(C(=O)NCCCCCC(=O)N/N=C/c2ccco2)cc1OC | 19.4
CCn1c(=NC(=O)CSC(C)=O)sc2ccccc21 | -17.3
CCOC(=O)C1C(c2cccs2)NC(=O)NC1(O)C(F)(F)F (stereo not drawn) | -1.78
O=C1C(Cl)=C(NC2CCCCC2)C(=O)N1Cc1ccccc1 | 0.0781
CCCOCC1CC2(CC(C)(c3csc(N)n3)OC2=O)C(=O)O1 (stereo not drawn) | -7.03
COc1cccc(S(=O)(=O)NCc2ccc(C(=O)N3CCN(c4ccccc4OC)CC3)cc2)c1 | -10.1
O=C(NCc1ccccc1)C1CCCN(c2nc3ccsc3c(=O)s2)C1 (stereo not drawn) | -0.465
